Laboratory results taken from the supplement of paper PMC8728848.
Some of the results follow.

Experiments:
Assay in all cases: glycan array binding signal (z-score within array); higher = stronger binding
Details in all cases: glycan notation: IUPAC condensed, linker removed
[1] = target: GlcNAc(b1-3)Fuc
Method in brief: (§1)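 Columns mapping to the same glycan were averaged after glycan names were converted to IUPAC-condensed notation. The data come from 3228 arrays in the Consortium for Functional Glycomics database, limited to those with an available protein sequence. Binding is reported as a within-array Z-score averaged across arrays of one protein sequence and across linkers.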

[2] = target: GlcNAc(b1-3)Gal
Method in brief: as §1

[3] = target: GlcNAc(b1-3)Gal(b1-3)GalNAc
Method in brief: as §1

[4] = target: GlcNAc(b1-3)Gal(b1-4)Glc
Method in brief: as §1

[5] = target: GlcNAc(b1-3)Gal(b1-4)GlcNAc
Method in brief: as §1

[6] = target: GlcNAc(b1-3)Gal(b1-4)GlcNAc(b1-2)Man(a1-3)[GlcNAc(b1-3)Gal(b1-4)GlcNAc(b1-2)Man(a1-6)]Man(b1-4)GlcNAc(b1-4)GlcNAc
Method in brief: as §1

[7] = target: GlcNAc(b1-3)Gal(b1-4)GlcNAc(b1-2)Man(a1-3)[GlcNAc(b1-3)Gal(b1-4)GlcNAc(b1-2)Man(a1-6)]Man(b1-4)GlcNAc(b1-4)[Fuc(a1-6)]GlcNAc
Method in brief: as §1

[8] = target: GlcNAc(b1-3)Gal(b1-4)GlcNAc(b1-2)[GlcNAc(b1-3)Gal(b1-4)GlcNAc(b1-6)]Man(a1-6)[GlcNAc(b1-3)Gal(b1-4)GlcNAc(b1-2)Man(a1-3)]Man(b1-4)GlcNAc(b1-4)GlcNAc
Method in brief: as §1

[9] = target: GlcNAc(b1-3)Gal(b1-4)GlcNAc(b1-3)Gal(b1-4)GlcNAc
Method in brief: as §1

[10] = target: GlcNAc(b1-3)Gal(b1-4)GlcNAc(b1-3)Gal(b1-4)GlcNAc(b1-2)Man(a1-3)[GlcNAc(b1-3)Gal(b1-4)GlcNAc(b1-3)Gal(b1-4)GlcNAc(b1-2)Man(a1-6)]Man(b1-4)GlcNAc(b1-4)GlcNAc
Method in brief: as §1

[11] = target: GlcNAc(b1-3)Gal(b1-4)GlcNAc(b1-3)Gal(b1-4)GlcNAc(b1-2)Man(a1-3)[GlcNAc(b1-3)Gal(b1-4)GlcNAc(b1-3)Gal(b1-4)GlcNAc(b1-2)Man(a1-6)]Man(b1-4)GlcNAc(b1-4)[Fuc(a1-6)]GlcNAc
Method in brief: as §1

[12] = target: GlcNAc(b1-3)Gal(b1-4)GlcNAc(b1-3)Gal(b1-4)GlcNAc(b1-2)[GlcNAc(b1-3)Gal(b1-4)GlcNAc(b1-3)Gal(b1-4)GlcNAc(b1-6)]Man(a1-6)[GlcNAc(b1-3)Gal(b1-4)GlcNAc(b1-3)Gal(b1-4)GlcNAc(b1-2)Man(a1-3)]Man(b1-4)GlcNAc(b1-4)[Fuc(a1-6)]GlcNAc
Method in brief: as §1

[13] = target: GlcNAc(b1-3)Gal(b1-4)GlcNAc(b1-3)Gal(b1-4)GlcNAc(b1-3)Gal(b1-4)GlcNAc(b1-2)Man(a1-3)[GlcNAc(b1-3)Gal(b1-4)GlcNAc(b1-3)Gal(b1-4)GlcNAc(b1-3)Gal(b1-4)GlcNAc(b1-2)Man(a1-6)]Man(b1-4)GlcNAc(b1-4)GlcNAc
Method in brief: as §1

[14] = target: GlcNAc(b1-3)Gal(b1-4)GlcNAc(b1-3)Gal(b1-4)GlcNAc(b1-3)Gal(b1-4)GlcNAc(b1-2)Man(a1-3)[GlcNAc(b1-3)Gal(b1-4)GlcNAc(b1-3)Gal(b1-4)GlcNAc(b1-3)Gal(b1-4)GlcNAc(b1-2)Man(a1-6)]Man(b1-4)GlcNAc(b1-4)[Fuc(a1-6)]GlcNAc
Method in brief: as §1

[15] = target: GlcNAc(b1-3)Gal(b1-4)GlcNAc(b1-3)Gal(b1-4)GlcNAc(b1-3)Gal(b1-4)GlcNAc(b1-2)[GlcNAc(b1-3)Gal(b1-4)GlcNAc(b1-3)Gal(b1-4)GlcNAc(b1-3)Gal(b1-4)GlcNAc(b1-6)]Man(a1-6)[GlcNAc(b1-3)Gal(b1-4)GlcNAc(b1-3)Gal(b1-4)GlcNAc(b1-3)Gal(b1-4)GlcNAc(b1-2)Man(a1-3)]Man(b1-4)GlcNAc(b1-4)[Fuc(a1-6)]GlcNAc
Method in brief: as §1

[16] = target: GlcNAc(b1-3)Gal(b1-4)GlcNAc(b1-3)Gal(b1-4)GlcNAc(b1-3)Gal(b1-4)GlcNAc(b1-3)Gal(b1-4)GlcNAc(b1-2)Man(a1-3)[GlcNAc(b1-3)Gal(b1-4)GlcNAc(b1-3)Gal(b1-4)GlcNAc(b1-3)Gal(b1-4)GlcNAc(b1-3)Gal(b1-4)GlcNAc(b1-2)Man(a1-6)]Man(b1-4)GlcNAc(b1-4)GlcNAc
Method in brief: as §1

[17] = target: GlcNAc(b1-3)Gal(b1-4)GlcNAc(b1-3)Gal(b1-4)GlcNAc(b1-3)Gal(b1-4)GlcNAc(b1-3)Gal(b1-4)GlcNAc(b1-2)Man(a1-3)[GlcNAc(b1-3)Gal(b1-4)GlcNAc(b1-3)Gal(b1-4)GlcNAc(b1-3)Gal(b1-4)GlcNAc(b1-3)Gal(b1-4)GlcNAc(b1-2)Man(a1-6)]Man(b1-4)GlcNAc(b1-4)[Fuc(a1-6)]GlcNAc
Method in brief: as §1

[18] = target: GlcNAc(b1-3)Gal(b1-4)GlcNAc(b1-3)Gal(b1-4)GlcNAc(b1-3)Gal(b1-4)GlcNAc(b1-3)Gal(b1-4)GlcNAc(b1-2)[GlcNAc(b1-3)Gal(b1-4)GlcNAc(b1-3)Gal(b1-4)GlcNAc(b1-3)Gal(b1-4)GlcNAc(b1-3)Gal(b1-4)GlcNAc(b1-6)]Man(a1-6)[GlcNAc(b1-3)Gal(b1-4)GlcNAc(b1-3)Gal(b1-4)GlcNAc(b1-3)Gal(b1-4)GlcNAc(b1-3)Gal(b1-4)GlcNAc(b1-2)Man(a1-3)]Man(b1-4)GlcNAc(b1-4)[Fuc(a1-6)]GlcNAc
Method in brief: as §1

[19] = target: GlcNAc(b1-3)Gal(b1-4)GlcNAc(b1-3)Gal(b1-4)GlcNAc(b1-3)GalNAc
Method in brief: as §1

[20] = target: GlcNAc(b1-3)Gal(b1-4)GlcNAc(b1-3)GalNAc
Method in brief: as §1

[21] = target: GlcNAc(b1-3)Gal(b1-4)GlcNAc(b1-3)[GlcNAc(b1-3)Gal(b1-4)GlcNAc(b1-3)]GalNAc
Method in brief: as §1

[22] = target: GlcNAc(b1-3)Gal(b1-4)GlcNAc(b1-6)[Gal(b1-3)]GalNAc
Method in brief: as §1

[23] = target: GlcNAc(b1-3)Gal(b1-4)GlcNAc(b1-6)[GlcNAc(b1-3)Gal(b1-3)]GalNAc
Method in brief: as §1

[24] = target: GlcNAc(b1-3)Gal(b1-4)GlcNAc(b1-6)[GlcNAc(b1-3)]Gal(b1-4)GlcNAc
Method in brief: as §1

[25] = target: GlcNAc(b1-3)GalNAc
Method in brief: as §1

[26] = target: GlcNAc(b1-3)Man
Method in brief: as §1

[27] = target: GlcNAc(b1-3)[GlcNAc(b1-4)][GlcNAc(b1-6)]GlcNAc
Method in brief: as §1

[28] = target: GlcNAc(b1-3)[GlcNAc(b1-6)]Gal(b1-4)GlcNAc
Method in brief: as §1

[29] = target: GlcNAc(b1-3)[GlcNAc(b1-6)]GalNAc
Method in brief: as §1

[30] = target: GlcNAc(b1-3)[GlcNAc(b1-6)]GlcNAc(b1-4)GlcNAc
Method in brief: as §1

[31] = target: GlcNAc(b1-4)Gal(b1-4)GlcNAc
Method in brief: as §1

[32] = target: GlcNAc(b1-4)GlcNAc
Method in brief: as §1

[33] = target: GlcNAc(b1-4)GlcNAc(b1-4)GlcNAc
Method in brief: as §1

[34] = target: GlcNAc(b1-4)GlcNAc(b1-4)GlcNAc(b1-4)GlcNAc(b1-4)GlcNAc
Method in brief: as §1

[35] = target: GlcNAc(b1-4)GlcNAc(b1-4)GlcNAc(b1-4)GlcNAc(b1-4)GlcNAc(b1-4)GlcNAc
Method in brief: as §1

[36] = target: GlcNAc(b1-4)[GlcNAc(b1-6)]GalNAc
Method in brief: as §1

[37] = target: GlcNAc(b1-6)Gal(b1-4)GlcNAc
Method in brief: as §1

[38] = target: GlcNAc(b1-6)GalNAc
Method in brief: as §1

B1: LCA (Lens culinaris), P02870 (protein)
chain: MASLQTQMISFYLIFLSILLTTIFFFKVNSTETTSFSITKFSPDQKNLIFQGDGYTTKGKLTLTKAVKSTVGRALYSTPIHIWDRDTGNVANFVTSFTFVIDAPSSYNVADEFTFFIAPVDTKPQTGGGYLGVFNSKEYDKTSQTVAVEFDTFYNAAWDPSNKERHIGIDVNSIKSVNTKSWNLQNGERANVVIAFNAATNVLTVTLTYPNSLEEENVTSYTLNEVVPLKDVVPEWVRIGFSATTGAEFAAHEVHSWSFHSELGGTSSSKQAADA
In the case of B1, the “glycan array binding signal (z-score)” value [1] is reported as -0.226, the “glycan array binding signal (z-score)” value [2] is reported as -0.224 and the “glycan array binding signal (z-score)” value [3] is reported as -0.217. For the same binder, the “glycan array binding signal (z-score)” value [4] was -0.234, the “glycan array binding signal (z-score)” value [5] was -0.216 and the “glycan array binding signal (z-score)” value [6] was -0.201. The “glycan array binding signal (z-score)” value [7] was 5.29, the “glycan array binding signal (z-score)” value [8] was -0.118 and the “glycan array binding signal (z-score)” value [9] was -0.199. The “glycan array binding signal (z-score)” value [10] was 0.031, the “glycan array binding signal (z-score)” value [11] was 3.29 and the “glycan array binding signal (z-score)” value [12] was 2.72. For the same binder, the “glycan array binding signal (z-score)” value [13] was -0.199, the “glycan array binding signal (z-score)” value [14] was 3.65 and the “glycan array binding signal (z-score)” value [15] was 2.77. For the same binder, the “glycan array binding signal (z-score)” value [16] was -0.19, the “glycan array binding signal (z-score)” value [17] was 3.94 and the “glycan array binding signal (z-score)” value [18] was 2.76. The “glycan array binding signal (z-score)” value [19] was -0.239, the “glycan array binding signal (z-score)” value [20] was -0.255 and the “glycan array binding signal (z-score)” value [21] was -0.251. The “glycan array binding signal (z-score)” value [22] was -0.232, the “glycan array binding signal (z-score)” value [23] was -0.253 and the “glycan array binding signal (z-score)” value [24] was -0.24. The “glycan array binding signal (z-score)” value [25] was -0.209, the “glycan array binding signal (z-score)” value [26] was -0.218 and the “glycan array binding signal (z-score)” value [27] was -0.2. The “glycan array binding signal (z-score)” value [28] was -0.223, the “glycan array binding signal (z-score)” value [29] was -0.23 and the “glycan array binding signal (z-score)” value [30] was -0.223. The “glycan array binding signal (z-score)” value [31] was -0.264, the “glycan array binding signal (z-score)” value [32] was -0.232 and the “glycan array binding signal (z-score)” value [33] was -0.184. The “glycan array binding signal (z-score)” value [34] was -0.225, the “glycan array binding signal (z-score)” value [35] was -0.203 and the “glycan array binding signal (z-score)” value [36] was -0.223. For the same binder, the “glycan array binding signal (z-score)” value [37] was -0.224 and the “glycan array binding signal (z-score)” value [38] was -0.212.
